Experimental data published in PubChem BioAssay AID686979 (National Center for Advancing Translational Sciences (NCATS), 2013).
Screen size: about 420,000 compounds; about 50,000 (12%) were called active. The shares of active, inactive and inconclusive entries below differ from those in the screen. Calls come from the whole dose curve; as a rule, active = well fitted inhibition curve with a large enough effect; inconclusive = small, poorly fitted or top-dose-only effect; inactive = flat fitted curve, though single readings scatter. No potency is given beside an inconclusive call; the fits are too rough.

assay: qHTS for Inhibitors of human tyrosyl-DNA phosphodiesterase 1 (TDP1): qHTS in cells in presence of CPT; conditions: chicken DT40 Tdp1-/-;hTDP1 cells + 20 nM CPT, ATP luminescence, 48 h; series mostly up to 46.2 µM; note: nearly all actives have a fitted effect of over 55% in size
Procedure, shortened: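 Cell growth measured by CellTiter-Glo luminescence after a minimum 48 h, 37 C compound exposure with 20 nM CPT in Tdp1-knockout DT40 cells stably expressing hTDP1, seeded 400/well; qHTS titration format.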
Potency is the fitted concentration of half-maximal effect; tags give direction and shape of the fitted curve.

SMILES | Potency
O=C(O)C(c1ccccc1)C(O)c1ccc2c(c1)OCO2 (stereo unspecified) | inactive
CCCn1c(N2CCN(C(=O)N3CCCCC3)CC2)nc2ccccc21 | inconclusive [inhibitor, single point]
COc1cccc2c(=S)c(CCC(C)=O)c(C)[nH]c12 | inconclusive [inhibitor, single point]
N=c1oc2ccc(Br)cc2cc1C(=O)NCc1ccccc1 | inconclusive [inhibitor, single point]
CCCCN1C(C(=O)c2ccccc2)=C(OC(C)=O)c2ccccc2S1(=O)=O | active: 5.17 µM
O=C(NCCCn1ccnc1)c1cccc(Br)c1 | inactive
CCc1nc2ccccc2c(NC(=O)CN2CC(C)CC(C)C2)c1C (stereo unspecified) | inconclusive [inhibitor, single point]
COc1ccc(NC(=O)CNC(=O)Cn2c(C)cc3ccccc3c2=O)cc1OC | active: 13 µM
Cc1noc(Cn2c(=O)c3cc4c(cc3n(CC(=O)Nc3ccccc3Br)c2=O)OCO4)n1 | inactive
O=C(Nc1sc2c(c1C(=O)N1CCCCC1)CCCC2)c1ccccc1Cl | inconclusive [inhibitor, partial curve]
Cc1ccccc1CNC(=O)CN(c1cccc(C)c1C)S(C)(=O)=O | inactive
COc1ccc(NS(=O)(=O)c2cc(NC(=O)c3nc4nc(C)cc(C)n4n3)ccc2C)cc1 | inactive
CCCCN(CCCC)C1=C(C(=O)c2ccccc2)N(C)S(=O)(=O)c2ccccc21 | inconclusive [inhibitor, single point]
COc1cc(-c2c(C(=O)c3ccccc3)[nH]c(N)c2C(N)=O)ccc1F | inconclusive [inhibitor, single point]
COc1cccc(CNC(=S)Nc2ccc3c(c2)c(=O)n(C)n3Cc2csc(C)n2)c1 | inactive
O=C(C(Cc1ccccc1)n1cccc1)N1CCN(Cc2ccccc2)CC1 (stereo unspecified) | inconclusive [inhibitor, single point]
OCCCn1c(C2CCCN2c2nc(-c3ccc(Cl)cc3)cs2)nc2cc(Cl)c(Cl)cc21 (stereo unspecified) | inconclusive [inhibitor, single point]
O=C(NCc1ccco1)C1CCCCN1S(=O)(=O)c1ccc(F)cc1 (stereo unspecified) | inactive
Cc1c(C(=O)NCc2ccco2)sc2nc(-c3ccccc3)cn12 | inconclusive [inhibitor, single point]
CSc1ccccc1C(=O)N1CCC(CCC(=O)NCc2ccc(F)cc2)CC1 | inconclusive [inhibitor, single point]
O=C(Nc1ccc(NC(=O)c2cccnc2Cl)cc1)c1cccc(Cl)c1 | inconclusive [inhibitor, single point]
Cc1ccc(S(=O)(=O)N2CCN(C(=O)COC(=O)c3ccc(Br)o3)CC2)c(C)c1 | inactive
COc1ccc(C(=O)NC(=S)NCc2ccco2)cc1Br | inconclusive [inhibitor, partial curve]
O=C(Cc1ccc(Br)cc1)Nc1ccccc1N1CCCC1 | inconclusive [inhibitor, single point]

SMILES | Potency
Cc1ccc(S(=O)(=O)NC(C)(C)CSc2nnc(N)s2)cc1 | inactive
O=C(OCc1nnc(-c2ccccc2)o1)c1cc(F)c(F)cc1Cl | inactive
COc1cccc(-c2nn3c(-c4cc(C)[nH]n4)nnc3s2)c1 | active: 15.8 µM
O=C(NC(=S)Nc1ccccc1N1CCOCC1)c1ccc(-c2ccccc2F)o1 | active: 13 µM
O=C(Nc1nccs1)c1cnccn1 | inactive
CCOC(=O)C1=CCN(S(=O)(=O)c2ccccc2Br)C1c1cccc(C)c1 (stereo unspecified) | inconclusive [inhibitor, single point]
OCC(O)[C@@H](O[C@H]1O[C@H](CO)[C@@H](O)[C@H](O)[C@H]1O)[C@H](O)[C@@H](O)CO (stereo partly specified) | inactive
CCOC(=O)c1ccc(NC(=O)c2nc[nH]c2C(=O)N(C)Cc2ccccc2)cc1 | inconclusive [inhibitor, single point]
O=C(Nc1ccccn1)c1nc(-c2ccccc2)n(-c2ccccc2)n1 | inconclusive [inhibitor, single point]
C=C(C)Cn1c(=O)c2c(nc3n2CCN3c2ccc(F)cc2)n(C)c1=O | inconclusive [inhibitor, single point]
CCOc1ccc(NCc2cccn2-c2nnc(N3CCC(C(=O)NCCOC)CC3)s2)cc1 | inconclusive [inhibitor, partial curve]
O=S(=O)(Cc1ncc(C(F)(F)F)cc1Cl)c1ccccc1 | active: 23.1 µM
Cc1ccccc1Nc1cc(C(=O)NCc2cccs2)c2ccccc2n1 | active: 20.6 µM
COc1ccc(S(=O)(=O)NC(C)C(=O)Nc2ccccc2F)cc1 (stereo unspecified) | inactive
CC1(C)Cc2cccc(OCC(=O)N3CCN(c4cccc(C(F)(F)F)c4)CC3)c2O1 | inconclusive [inhibitor, single point]
CCOc1ccc(-c2nc(Cn3ccn4nc(-c5ccc(OCC)c(Cl)c5)cc4c3=O)c(C)o2)cc1 | inactive
Cc1cc(NC(=O)c2ccc(NC(=O)C3CCCO3)cc2)ccc1Br (stereo unspecified) | inconclusive [inhibitor, single point]
CCN(CC)CCNC(=O)c1ccc(NC(=O)c2cc(S(=O)(=O)N3CCCCC3)ccc2C)cc1 | inconclusive [inhibitor, single point]
COc1ccccc1/C=C/c1nc(C#N)c(NCCc2ccccc2)o1 | inconclusive [inhibitor, single point]
Cc1ccc(-c2cc(-c3ccc(F)cc3)c(C#N)c(N)n2)o1 | inconclusive [inhibitor, single point]
COC(=O)c1[nH]c(=O)c2ccccc2c1O | active: 2.59 µM
O=C(CSCc1ccc(Cl)cc1)NCc1ccc2c(c1)OCO2 | inactive
COc1ccc(C(C(=O)NC2CCCC2)N(C(=O)c2snc(-c3ccc(F)cc3)c2N)c2cccc(F)c2)cc1 (stereo unspecified) | active: 6.51 µM
Cc1cc(Oc2ccc(-c3ccccc3)cc2)nc(N2CCOCC2)n1 | inconclusive [inhibitor, single point]

SMILES | Potency
CC(C)N(C(=O)[C@H]1C[C@H](CC(=O)NCc2ccco2)C(=O)N2CCc3c([nH]c4cc(CCC(=O)N(C)C)ccc34)[C@]12C)C(C)C | inconclusive [inhibitor, single point]
CCN1CCN(C(=O)CCc2nc3ccccc3c(=O)[nH]2)CC1 | inconclusive [inhibitor, full curve]
CC(C)(C)NC(=O)NC(=O)CSc1ncccn1 | inactive
O=C(NCC1CC1)c1ccc2c3n(nc2c1)-c1ccc(Cl)cc1CO3 | inconclusive [inhibitor, single point]
CCOc1ccc(N(CC)S(=O)(=O)N2CCCC(C(=O)Nc3cc(Cl)ccc3OC)C2)cc1 (stereo unspecified) | inconclusive [inhibitor, single point]
CCN(CC(=O)NCc1ccc(Cl)cc1)C(=O)c1ccc(S(=O)(=O)NCc2ccco2)cc1 | inconclusive [inhibitor, single point]
CC(C)(C)OC(=O)NS(=O)(=O)NOCc1ccccc1 | inconclusive [inhibitor, single point]
COc1ccc(C)cc1N(C)C(=O)c1c2c(nc3ccccc13)C(=O)N(C1CCCCC1)C2 | inconclusive [inhibitor, single point]
CC(C)N(Cc1ccccc1)S(=O)(=O)c1ccc(F)cc1 | inconclusive [inhibitor, single point]
COc1ccc(-c2c(-c3ccccc3OC)oc3ccccc23)cc1F | inconclusive [inhibitor, single point]
S=C1NCCc2ccc(Cl)cc2C1c1ccccc1 (stereo unspecified) | inconclusive [inhibitor, single point]
CCCc1ccc(OC(=O)c2ccc(O)cc2Cl)cc1 | inconclusive [inhibitor, single point]
CN(C)c1ccc(CNC(=O)C2Cc3c(-c4ccccc4Oc4ccccc4)ccnc3O2)cc1 (stereo unspecified) | inconclusive [inhibitor, single point]
COc1ccc(CC(=O)NCc2n[nH]c(=S)n2-c2cccc(C)c2)cc1 | inactive
CCOC(=O)CCSc1nnc(-c2cccnc2)n1-c1ccccc1OC | inactive
Cc1ccc(Nc2c(-c3ccco3)nc3ccccn23)cc1 | inactive
C/C(=C\CCC1(C)C2CC3C(C2)C31C)C(=O)O (stereo unspecified) | inactive
COc1ccc(Nc2ncc(C(=O)N3CCN(c4ccc(F)cc4)CC3)c3ccccc23)cc1 | active: 23.1 µM
CCCN(C)C1CN(Cc2cn(Cc3ccc(F)cc3)nn2)S(=O)(=O)C1 (stereo unspecified) | inactive
O=C(Nc1ccc(F)c(Cl)c1)C1CCCN(C2=NS(=O)(=O)c3ccccc32)C1 (stereo unspecified) | inconclusive [inhibitor, partial curve]
COc1ccc(-c2nc3scc(CCNS(=O)(=O)c4ccc(NC(C)=O)cc4)n3n2)cc1 | inconclusive [inhibitor, single point]
CCn1cc(C(=O)O)c(=O)c2cc(F)c(N3CCN(C(=S)Nc4ccc(OC)cc4)CC3)cc21 | inconclusive [inhibitor, partial curve, poor fit]
Cc1c(O[C@@H]2O[C@H](CO)[C@@H](O)[C@H](O)[C@H]2O)c(CO)c(O[C@@H]2O[C@H](CO)[C@@H](O)[C@H](O)[C@H]2O)c2c1O[C@@H](c1ccccc1)C[C@@H]2O | inactive
